Experimental data as given in patent US20220411514A1, “ANTI-GAL3 ANTIBODIES AND METHODS OF USE FOR INSULIN RESISTANCE” (TrueBinding, Inc., priority 2021, published 2022).
Positions count from the first letter of the chain named. Names may count otherwise.

B1: F846TC.7F10: anti-Gal3 antibody (antibody)
heavy: EVQLVESGGDLVKPGGSLKLSCAASGFTFSNYGLSWIRQTPDKRLEWVATISSGGSYTYYPDSVKGRFTISRDSAKNTLYLQMSSLKSEDTAMYYCARHAHYYGVSPYYFDYWGQGTCLTVSSASTKGPSVFPLAPCSRSTSESTAALGCLVKDYFPEPVTVSWNSGALTSGVHTFPAVLQSSGLYSLSSVVTVPSSSLGTKTYTCNVDHKPSNTKVDKRV[in this place human IgG4 Fc with S228P (EU numbers)]
light: DIVMTQSPSSLAMSVGQKVTMSCKSSQSLLNSSNQKNYLAWYQQKPGQSPKLLVYFASTRESGVPDRFIGSGSGTDFTLTISSVQAEDLADYFCQQHYSTPYTFGGGAKLEIKRTVAAPSVFIFPPSDEQLKSGTASVVCLLNNFYPREAKVQWKVDNALQSGNSQESVTEQDSKDSTYSLSSTLTLSKADYEKHKVYACEVTHQGLSSPVTKSFNRGEC
modifications: F846TC.7F10 heavy chain peptide sequence; F846TC.7F10 light chain peptide sequence
notes: anti-Gal3 antibody
B2: F847C.26F5: anti-Gal3 antibody (antibody)
heavy: QIQLVQSGPEVKKPGETVKISCKASGYIFTNYGMNWVKQAPGKGLKWMGWINTYTGEPTYTDDFKGRFAFSLETSASTAYLQINNLKNEDTATYFCAKFGNYVGAMDYWGQGTSVTVSSASTKGPSVFPLAPCSRSTSESTAALGCLVKDYFPEPVTVSWNSGALTSGVHTFPAVLQSSGLYSLSSVVTVPSSSLGTKTYTCNVDHKPSNTKVDKRV[in this place human IgG4 Fc with S228P (EU numbers)]
light: EIKMNQSPSSLSASLGDTITITCHASQNINVWLSWYQQKPGNIPKLLIYKASNLHTGVPSRFSGSGSGTGFTLTISSLQPEDIATYYCQQGQSYPYTFGGGTKLELKRTVAAPSVFIFPPSDEQLKSGTASVVCLLNNFYPREAKVQWKVDNALQSGNSQESVTEQDSKDSTYSLSSTLTLSKADYEKHKVYACEVTHQGLSSPVTKSFNRGEC
modifications: F847C.26F5 heavy chain peptide sequence; F847C.26F5 light chain peptide sequence
notes: anti-Gal3 antibody
B3: F847C.10B9: anti-Gal3 antibody (antibody)
heavy: B2 heavy
light: B2 light with E1D, K3R, N5T
modifications: F847C.10B9 heavy chain peptide sequence; F847C.10B9 light chain peptide sequence
notes: anti-Gal3 antibody
B4: F847C.12F12: anti-Gal3 antibody (antibody)
heavy: B2 heavy with V11L, I28T, T61V, Q82R
light: B2 light with E1D, K3Q, M4V, N5I
modifications: F847C.12F12 heavy chain peptide sequence; F847C.12F12 light chain peptide sequence
notes: anti-Gal3 antibody
B5: F846TC.14E4: anti-Gal3 antibody (antibody)
heavy: QVTLKESGPGILQPSQTLSLTCSFSGFSLSTSGMGVGWIRQPSGKGLEWLAHIWWDDDKYYNTALKSGLTISKDASKNQVFLKIASMDTADTATYYCARNLYDGSYGYYAMDYWGQGTSVTVSSASTKGPSVFPLAPCSRSTSESTAALGCLVKDYFPEPVTVSWNSGALTSGVHTFPAVLQSSGLYSLSSVVTVPSSSLGTKTYTCNVDHKPSNTKVDKRV[in this place human IgG4 Fc with S228P (EU numbers)]
light: DIVMTQAAFSNPVTLGTSASISCRSSKSLLHTNGITFLYWYLQKPGQSPQPLIYQMSNLASGVPDRFSSSGSGTDFTLRISRVEAEDVGVYYCAQNLELPWTFGGGTKLEINRTVAAPSVFIFPPSDEQLKSGTASVVCLLNNFYPREAKVQWKVDNALQSGNSQESVTEQDSKDSTYSLSSTLTLSKADYEKHKVYACEVTHQGLSSPVTKSFNRGEC
modifications: F846TC.14E4 heavy chain peptide sequence; F846TC.14E4 light chain peptide sequence
notes: anti-Gal3 antibody
B6: F846C.1H5: anti-Gal3 antibody (antibody)
heavy: EVQLLESGGGLVKPGGSLKLSCAASGFTFSSYAMSWVRQTPEKRLEWVASISSGGDTYYPDSVKGRFTISRDNARNILYLQMSSLRSEDTAMYYCASYGNSLFDYWGQGTTLTVSSASTKGPSVFPLAPCSRSTSESTAALGCLVKDYFPEPVTVSWNSGALTSGVHTFPAVLQSSGLYSLSSVVTVPSSSLGTKTYTCNVDHKPSNTKVDKRV[in this place human IgG4 Fc with S228P (EU numbers)]
light: DVVMTQTPLSLPVSLGDQASISCRSSQSLVHNSGNTYLHWYLQRPGQSPNLLIYKVSNRFSGVPDRFSGSGSGTDFTLKISRVAAEDLGVYFCSQSTHVPPTFGGGTKLEIKRTVAAPSVFIFPPSDEQLKSGTASVVCLLNNFYPREAKVQWKVDNALQSGNSQESVTEQDSKDSTYSLSSTLTLSKADYEKHKVYACEVTHQGLSSPVTKSFNRGEC
modifications: F846C.1H5 heavy chain peptide sequence; F846C.1H5 light chain peptide sequence
notes: anti-Gal3 antibody
B7: F847C.4B10: anti-Gal3 antibody (antibody)
heavy: EVQLVETGGGLVKPGGSLKLSCAASGFTFSSYAMSWVRQTPEKRLEWVASISSGGSTYYPDSVKGRFTISRDNARNILYLQMSSLRSEDTAMYYCTRFTTVVEMDYWGQGTSVTVSSASTKGPSVFPLAPCSRSTSESTAALGCLVKDYFPEPVTVSWNSGALTSGVHTFPAVLQSSGLYSLSSVVTVPSSSLGTKTYTCNVDHKPSNTKVDKRV[in this place human IgG4 Fc with S228P (EU numbers)]
light: QAVVTQESALTTSPGETVTLTCRSSTGAVTTSNYANWVQEKPDHLFTGLIGGTNNRAPGVPARFSGSLIGDKAALTITGAQTEDEAIYFCALWYSNHLVFGGGTKLTVLRTVAAPSVFIFPPSDEQLKSGTASVVCLLNNFYPREAKVQWKVDNALQSGNSQESVTEQDSKDSTYSLSSTLTLSKADYEKHKVYACEVTHQGLSSPVTKSFNRGEC
modifications: F847C.4B10 heavy chain peptide sequence; F847C.4B10/847.14H4 light chain peptide sequence
notes: anti-Gal3 antibody
B8: F846TC.14A2: anti-Gal3 antibody (antibody)
heavy: QIQLVQSGPELKKPGETVKISCKASGYTFTNYGMNWVKQAPGKGLKWMGWINTYTGEPTYAGDLKGRFAFSLETSASTAYLQINNLKNEDTATYFCVRYTMDYWGQGTSVTVSSASTKGPSVFPLAPCSRSTSESTAALGCLVKDYFPEPVTVSWNSGALTSGVHTFPAVLQSSGLYSLSSVVTVPSSSLGTKTYTCNVDHKPSNTKVDKRV[in this place human IgG4 Fc with S228P (EU numbers)]
light: B7 light with T53I, A57V, L98W
modifications: F846TC.14A2 heavy chain peptide sequence; F846TC.14A2 light chain peptide sequence
notes: anti-Gal3 antibody
B9: F849C.8D10: anti-Gal3 antibody (antibody)
heavy: QVQLQQTGAELVKPGASVKLSCKASGYTFTSYWINWVKQRPGQGLEWIGNIYPGSSSIYYSEKFKSKATLTVDTSSSTAYMQLSSLTSDDSAVYYCARWGYWGQGTTLTVSSASTKGPSVFPLAPCSRSTSESTAALGCLVKDYFPEPVTVSWNSGALTSGVHTFPAVLQSSGLYSLSSVVTVPSSSLGTKTYTCNVDHKPSNTKVDKRV[in this place human IgG4 Fc with S228P (EU numbers)]
light: DVLMTQTPLSLPVSLGDQASISCRSSQDIVHSSGNTYLEWYLQKPGQSLKLLIYKVSNRFSGVPDRFSASGSGTDFTLKISRVEAEDLGVYYCFQGSHVPPTFGSGTKLEIKRTVAAPSVFIFPPSDEQLKSGTASVVCLLNNFYPREAKVQWKVDNALQSGNSQESVTEQDSKDSTYSLSSTLTLSKADYEKHKVYACEVTHQGLSSPVTKSFNRGEC
modifications: F849C.8D10 heavy chain peptide sequence; F849C.8D10 light chain peptide sequence
notes: anti-Gal3 antibody

biological target: T1, Human Gal3 peptides (Homo sapiens, UniProt P17931); experiment: Gal3 peptide binding ELISA (Example 8); conditions: antibody 5 μg/mL
T1 construct: purchased LifeTein custom order
Description: Gal3 peptide binding activity of additional exemplary anti-Gal3 antibodies was assessed with the same peptides as described in FIG. 18 (SEQ ID NOs: 3-26). Human Gal3 peptides (LifeTein, custom order) and human Gal3 proteins (R&D Systems, 8259-GA; TrueBinding, QCB200349) were diluted in PBS (Corning, 21-030-CM) to concentrations of at least 100 μg/mL (peptides) or 1 μg/mL (proteins), and added to the wells of several 96-well ELISA plates (Thermo Fisher, 44-2404-21). After incubating the plates at 4° C. overnight, the plates were washed three times with PBST (PBS with 0.05% Tween 20 [VWR, 0777]). The plates were then blocked for an hour with 2% BSA (EMD Millipore, 126609) in PBST at room temperature with gentle rocking. Thereafter, the 2% BSA in PBST was discarded and Gal3-binding antibodies (reformatted hIgG4 [S228P]) were diluted in 2% BSA in PBST to concentrations of 5 μg/mL and added to the wells. The plates were incubated for an hour at room temperature with gentle rocking and then washed three times with PBST. Afterwards, Peroxidase AffiniPure F(ab′)2 Fragment Goat Anti-Human IgG (H+L) polyclonal antibody (Jackson ImmunoResearch, 109-036-003), was diluted in 2% BSA in PBST (1:4000) and added to the wells. The plates were incubated for 1 hour at room temperature with gentle rocking and then washed three times with PBST. TMB substrate (Thermo Scientific, 34029) was then added to each well. The reaction was stopped with 1M HCl (JT Baker, 5620-02) and read using a plate reader (Molecular Devices) at absorbance of 450 nm.

Molecule | binding to Gal3 peptide 1 (SEQ ID NO: 3) | binding to Gal3 peptide 7 (SEQ ID NO: 9) | binding to Gal3 peptide 2 (SEQ ID NO: 4) | binding to Gal3 peptide 8 (SEQ ID NO: 10) | binding to Gal3 peptide 3 (SEQ ID NO: 5)
B1 | bound |  |  |  | 
B2 | bound | bound |  |  | 
B3 | bound | bound |  |  | 
B4 | bound | bound |  |  | 
B5 |  |  | bound |  | 
B6 | bound |  |  |  | 
B7 | bound |  |  |  | 
B8 | bound | bound |  | bound | 
B9 |  |  | bound |  | bound
